From paper PMC4336329 (PLoS ONE, 2015)
Screen size: about 310,000 compounds; about 2,200 (0.71%) showed an effect of 50% or more. The effect is printed as a negative number. The list shows a part of the results.

target: human ether-à-go-go-related gene (hERG) potassium channel (human, UniProt Q12809); experiment: primary screen, population patch clamp on CHO cells stably expressing hERG
Sequence (Q12809 whole entry, looked up): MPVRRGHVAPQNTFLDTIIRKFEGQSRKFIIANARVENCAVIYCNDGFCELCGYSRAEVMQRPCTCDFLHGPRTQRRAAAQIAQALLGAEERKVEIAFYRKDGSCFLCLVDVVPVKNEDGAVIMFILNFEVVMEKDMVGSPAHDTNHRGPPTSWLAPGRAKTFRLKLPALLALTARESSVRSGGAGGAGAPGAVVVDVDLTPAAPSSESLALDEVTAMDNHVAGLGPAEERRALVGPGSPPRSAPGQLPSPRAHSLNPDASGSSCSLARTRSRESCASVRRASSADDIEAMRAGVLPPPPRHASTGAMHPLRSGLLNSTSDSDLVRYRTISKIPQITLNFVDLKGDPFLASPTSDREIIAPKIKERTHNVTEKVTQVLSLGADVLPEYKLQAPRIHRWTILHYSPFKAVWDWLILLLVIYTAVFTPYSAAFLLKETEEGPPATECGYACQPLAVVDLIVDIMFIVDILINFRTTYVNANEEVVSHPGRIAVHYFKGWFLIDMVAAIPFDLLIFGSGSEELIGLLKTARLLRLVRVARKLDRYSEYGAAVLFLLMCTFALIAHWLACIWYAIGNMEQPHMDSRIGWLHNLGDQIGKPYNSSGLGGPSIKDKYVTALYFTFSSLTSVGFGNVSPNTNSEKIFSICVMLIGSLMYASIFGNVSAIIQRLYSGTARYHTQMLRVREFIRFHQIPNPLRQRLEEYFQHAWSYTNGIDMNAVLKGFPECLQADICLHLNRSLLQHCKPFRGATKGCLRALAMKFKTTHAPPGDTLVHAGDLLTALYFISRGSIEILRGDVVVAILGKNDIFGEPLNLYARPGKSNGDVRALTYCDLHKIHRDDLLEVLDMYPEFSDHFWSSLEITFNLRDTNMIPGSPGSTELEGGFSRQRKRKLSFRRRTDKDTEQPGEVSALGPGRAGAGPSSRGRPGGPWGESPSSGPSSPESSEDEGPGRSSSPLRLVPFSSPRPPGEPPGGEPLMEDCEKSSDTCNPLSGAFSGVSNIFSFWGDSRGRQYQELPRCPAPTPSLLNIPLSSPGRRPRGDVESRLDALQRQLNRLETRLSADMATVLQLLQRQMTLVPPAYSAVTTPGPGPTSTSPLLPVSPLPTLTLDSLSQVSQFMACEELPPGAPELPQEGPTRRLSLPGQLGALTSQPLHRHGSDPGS

| Structure (SMILES) | hERG current change (%, negative = inhibition) at 1uM |
| --- | --- |
| Cc1ccc(N2CC(C(=O)Nc3ccccc3C(=O)NC3CCCCC3)CC2=O)cc1 (centres unmarked) | 5.42% |
| Cc1ccc(NC(=O)COC(=O)CN2C(=O)C3CCCCC3C2=O)cc1S(=O)(=O)N1CCOCC1 (centres unmarked) | 8.07% |
| CCCn1c(SCCN2C(=O)c3ccccc3C2=O)n[nH]c1=O | 11.3% |
| O=S(=O)(NCc1ccco1)c1ccc(Cl)nc1 | 7.24% |
| COc1cccc(-c2nc(-c3ccccc3)[nH]c(=O)c2C#N)c1 | 12.3% |
| COC(=O)c1csc2c(C(F)(F)F)cc(N3CCN(C(=O)Nc4ccccc4)CC3)nc12 | 15% |
| CCCOC(=O)Cn1cnc2scc(-c3ccc(OC)cc3)c2c1=O | 9.82% |
| CCCCc1cc(-c2n[nH]c(=S)o2)c2ccccc2n1 | 12.7% |
| Cc1c(C(=O)N2CCN(c3cccc(Cl)c3)CC2)cccc1[N+](=O)[O-] | -2.11% |
| Cc1cccc(NC(=O)c2ccc(Cl)nc2)n1 | 11.4% |
| CC(=O)c1ccccc1C(=O)N1CCCC(CNC(=O)c2ccccc2Cl)C1 (centres unmarked) | 9.7% |
| O=C1C(C=NCc2ccco2)=C(O)c2ccccc21 | 4.45% |
| Cc1ccc(-n2nc3c(=O)n(CCCC(=O)NCc4ccc(F)cc4)nc(C)c3c2C)cc1 | -3.45% |
| Cc1nc(=S)c2ccccc2[nH]1 | 6.91% |
| CCOCCCNC(=S)N(CCN(CC)CC)Cc1cc2cc3c(cc2[nH]c1=O)OCCO3 | 11% |
| CCOC(=O)C1Nc2ccc(C)cc2C2C=CCC12 (centres unmarked) | 16.8% |
| COC(=O)c1c(NC(=O)CS(=O)(=O)c2ccccc2)sc(C)c1C | 8.57% |
| CCCN(C(=O)c1c(CC)noc1C)c1c(N)n(Cc2ccccc2)c(=O)[nH]c1=O | -5.22% |
| F[B-](F)(F)F.OCCC[NH+]=c1cc(-c2ccccc2)oc2ccc(Cl)cc12 | -78% |
| CCOC(=O)C1=C(CN2CCOCC2)NC(=O)NC1c1cccc([N+](=O)[O-])c1 (centres unmarked) | -2.84% |
| CC1CCN(c2ncnc3ccccc23)CC1.Cl | -12.3% |
| C=CCNC(=O)CSc1nnc(-c2cccs2)o1 | 6.22% |

| Structure (SMILES) | hERG current change (%, negative = inhibition) at 1uM |
| --- | --- |
| O=C(O)CSc1nc(-c2ccc(Cl)cc2)nc2c1oc1ccccc12 | 4.81% |
| Cc1cc(C(=O)CN2C(=O)CCC2=O)c(C)n1Cc1ccccc1 | 1.09% |
| COc1cccc(CNC(=O)C2CCCN(c3nn4c(=O)cc(C)nc4s3)C2)c1OC (centres unmarked) | 12.3% |
| Cc1ccc2nc(NNC(=O)c3ccc4c(c3)OCCO4)sc2c1 | 13.2% |
| COCCOc1ccc(C(F)(F)F)cc1NC(=O)CN1C(=O)NC(C)(c2ccc3c(c2)OCO3)C1=O (centres unmarked) | 12.9% |
| NC(=O)COC(=O)C1c2ccccc2Oc2ccccc21 | 1.95% |
| CCCCN(C)c1ccc([N+](=O)[O-])cc1 | 15.8% |
| COC(=O)c1ccc(NC(=S)NCCC2=CCCCC2)cc1 | 6.38% |
| C/C(=N\NC(=O)c1cc2c(s1)CCC(C)C2)c1ccc[nH]1 (centres unmarked) | 11.3% |
| O=C(NNc1c(Cl)cccc1Cl)c1c(F)cccc1Cl | 16.1% |
| O=C(Nc1nc2ccccc2c2nc3ccccc3n12)c1ccc(F)cc1 | 13.5% |
| CCc1ccc(OC)c(S(=O)(=O)N2CCN(C(=O)c3ccco3)CC2)c1 | 11.7% |
| COc1cc(NC(=O)c2cccnc2)ccc1-c1cc2ccccc2oc1=O | 6.97% |
| Nc1nonc1-n1nnc(C(=O)N/N=C/C2CC=CCC2)c1CSc1ccccc1 (centres unmarked) | 6.46% |
| COc1ccc(C(C)(C)C)cc1NC(=O)COC(=O)c1ccc([N+](=O)[O-])o1 | 13.3% |
| CN1C(=O)N(CC(=O)NCc2ccc(Cl)cc2Cl)C(=O)C12CCCCC2 | 7.43% |
| COc1ccc(-c2ccc([C@H]3[C@@H]4C=CCC[C@@]4(C)C(=O)N3Cc3ccccc3)c(F)c2)cc1 | 11.4% |
| CCN(CC)C(=S)Nc1ccc([N+](=O)[O-])cc1 | 6.63% |
| CCOC(=O)C(=O)/C(C#N)=C/Nc1ccccc1 | 12.1% |
| CCCS(=O)(=O)c1nc(S(=O)(=O)c2ccc(C)cc2)c(NCc2ccccn2)s1 | 8.9% |
| COC(=O)c1ccc([C@@H](O)[C@H](C)C(=O)CC(=O)OC(C)(C)C)cc1 | 6.21% |
| Cc1ccc2nc(C)cc(N/N=C/c3cccc(O)c3)c2c1 | 12.7% |
